Results as given in the supplement of paper PMC3334620.
Over roughly 33,000 sequences, “E-score (-0.5 to 0.5)” has its median near -0.054; the highest 2% begin near 0.39. The list shows a part of the results.

Molecular target: Ylr278c (UniProt Q05854)
Test: PBM E-score (8-mer binding enrichment) (E-score (-0.5 to 0.5)); higher = stronger / more preferred TF binding; most listed sequences are background and not binding sites
Settings: protein concentration: 200 nM; construct: GST-DNA-binding domain
Summary of the method: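 Yeast transcription factors, full-length or as DNA-binding domains, were expressed with a GST tag using PURExpress in vitro transcription/translation. At about 100-200 nM they were applied to universal all-10-mer Agilent arrays, double-stranded by primer extension on fresh or once-stripped slides. Fluorescent anti-GST detected bound protein, and masliner normalised the scans. E-scores for ungapped eight-base words, pooled with reverse complements, came from the Universal PBM Analysis Suite.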

Sequence | PBM E-score
CATTATTC | 0.0127
GGGAAGAA | -0.2
ACACAAGG | -0.177
ATAGGTCG | -0.0605
ATGCCCAT | -0.34
ACTGCACA | -0.186
CATCGTCG | 0.00894
CGAAGACC | 0.152
CTCTTAAG | -0.161
AGTCGCCA | -0.199
ATCCCCGG | 0.425
CTTTGAGC | -0.21
ATCGGACG | 0.357
GGTGAAGA | -0.0845
ACTAGCGG | 0.174
CAAGGAAA | 0.00964
TAGAGTCA | -0.243
ATGCTCCC | -0.0848
GTTTTCCA | 0.00849
TATGTTAA | -0.174
GGCCCTGA | -0.0923
CGCGACTA | 0.142
AAAAGACT | -0.172
AATGTCAT | 0.00877
GACGAGAC | -0.0931

Sequence | PBM E-score
CGCTCTAA | -0.0974
ATACAGCA | -0.0117
TACTTGGA | -0.175
GTGACGGA | 0.314
CAGCCGGG | 0.166
CGCAGGAC | 0.0789
CATATATG | -0.306
TAGGGCCA | -0.36
AAAAGTTG | -0.0843
TAGGCTGA | -0.216
CGCCAATC | -0.0557
ACCGTCAG | -0.0957
CAAACTCA | -0.0703
CCCACTCG | -0.00429
ATTAGTTC | 0.0141
ACCTTTCC | 0.151
CGAGGGGC | -0.089
TACGGTGA | -0.00183
GCCAGGGC | -0.0673
CTCTGCCC | -0.131
AAGGACTA | -0.244
AGCGGGCC | 0.113
CGCCCTCC | 0.266
CCGAACAA | 0.309
AAGGTTGA | -0.119

Sequence | PBM E-score
CTCAGCAG | -0.262
CGTTCACA | -0.0721
CACCAGGA | -0.0445
AATCTAGT | 0.0968
AGGGGGAA | -0.161
ACTTCTTC | -0.0177
TCAGAAAA | -0.277
CCTGCTGA | -0.057
CCCCTCTA | -0.309
AAGGTCAC | -0.209
AACTACAG | -0.0238
GAGCAAGC | 0.0425
CGTATTAC | 0.118
GACCCTAA | -0.0817
GAGTTTAA | 0.138
CGCTTGAC | -0.0143
ATTCAGGG | -0.0722
CGCATTGA | 0.122
CTCTGAAC | -0.357
CGGATGAC | 0.225
AAAGCTAA | -0.102
GGACCTGA | 0.0691
ATGCAGGG | -0.158
CGATCGCA | 0.149
AGGTCCGC | 0.333

Sequence | PBM E-score
CGCTGGGC | -0.0443
ACAAATAA | -0.073
CCACTCGC | 0.0161
CAGTCGGG | 0.159
TACGCACA | -0.295
AGGATGCA | -0.243
ATCCGTTA | 0.277
AGTAATCA | -0.0652
CAAAGACA | -0.0424
ACGTCCTA | 0.0267
GAACGCAC | -0.0241
TATTCGGA | 0.408
GAACCGGA | 0.426
CGACCGAC | 0.159
TGGGCGAA | -0.0681
ACAAATTG | -0.0518
ATATCCGG | 0.413
CCTGGTTA | -0.206
TCTCAGCA | -0.355
GCTATCAC | -0.108
GTACGCGA | -0.193
TGGCCACA | -0.188
ACCTTTTG | 0.009
CTCCAGTC | -0.0598
AGTGAGGG | -0.159

Sequence | PBM E-score
CGGAAACG | 0.271
ACGGCATA | 0.082
ATCCACTC | 0.0469
TCGAGCCA | -0.192
AACAGTTG | -0.134
ATTAGCGC | 0.0787
ACCCGCCT | -0.173
AAGGACTC | -0.104
AAACGTAG | -0.252
GCAATTAA | 0.0805
AAGGAGAG | -0.219
CAAACATA | -0.233
ATGTTCGG | 0.229
ACGTGATC | -0.0011
CTATACTA | 0.0464
AGACCAAA | -0.111
ACCTAACT | 0.0471
GATGTGGA | 0.169
GAATCCGA | 0.368
AGGTGAAC | -0.172
CTTCGTAC | -0.0723
CCTCAACG | -0.289
GACCCCCA | -0.271
ATCATTCC | 0.114
CTACAAAC | -0.191

Sequence | PBM E-score
AATCTCGC | -0.00098
AAGCACAA | -0.126
CAGCATTA | -0.178
CTAGCCAG | -0.299
GGCTATAC | 0.00804
AACTTTTG | 0.0152
AAGCCGAC | 0.286
AGGCCCAC | -0.337
AACTTGGA | -0.0692
CCACCTCC | 0.231
ACTTCCGA | 0.378
CGTTCAGC | -0.0765
GAATACGC | 0.0561
ACCGTCAA | 0.0593
AACCGCGA | 0.209
AGGGCGAC | 0.0545
GGGATGAC | 0.0341
CGTCATAG | -0.102
GAACATAA | 0.00938
TCACCGCA | 0.0213
CCAGCTGG | 0.0193
GCCTAAAC | -0.212
ATGGCCGA | 0.19
GGCGGCAA | 0.225
TCGGGTAA | 0.0517

Sequence | PBM E-score
CGGCCTGC | 0.0762
AGCGCGTG | -0.189
GCGGAGAC | 0.4
AGTAGTGC | 0.0423
CGGAAGCC | 0.325
AGTGGCGA | -0.0275
GCAACATA | -0.273
GTGTCTGA | -0.222
GCGAAGAA | -0.033
GTGTCCTA | -0.108
ATTCCACG | 0.0567
TGACACCA | -0.25
TCCGCACA | 0.28
CGTGGCGA | 0.0245
ATAAAAAA | 0.0089
GGGTACTA | -0.148
AACGTTAG | -0.0215
CACTCCTA | -0.0698
CTAAATTC | 0.0538
CGGTTCAC | 0.0104
GACTAAGA | 0.0539
AAGACGTA | -0.154
AAGCGGAT | 0.327
ATGAGGTA | -0.15
ATCAGTTA | -0.0392

Sequence | PBM E-score
CTTTTCTA | -0.251
ACGATGAT | -0.139
AGGTGGAT | -0.184
CTTCTAAA | -0.149
TAGACTGA | -0.142
CGATCCAG | -0.048
GTTCGGCA | 0.134
ACTCACCA | -0.189
ACGCTGAG | -0.252
AAAATACC | 0.188
AAGACCCC | -0.0799
TAATGGAA | 0.0688
CGAATCAC | -0.133
GTGTTCTA | 0.0211
ACGGCGTA | -0.00977
ATTTGAGA | -0.0679
AAGGAACC | 0.148
AAAAGTAT | -0.0537
AATCAACC | -0.0639
AGAAGTGC | -0.121
AGCAAGCT | -0.33
CTAAGAGC | -0.113
AACCTCGA | -0.0626
ATCCATTG | -0.0844
GGCATGGA | 0.108

Sequence | PBM E-score
AGCGCCAG | -0.0532
CTGAATGC | -0.122
ACTCAGGC | -0.0826
CCTGTCAA | -0.208
AGCACCCT | -0.199
GTTATGTA | 0.116
AGGAGCTG | -0.139
AAGGGCGA | -0.139
TCCAGGGA | -0.304
CACACTCC | 0.144
ACAGGGCG | 0.0649
ATCCCGTG | 0.212
AACATATC | 0.113
CGGGAGAC | 0.302
GCTCGGGA | 0.174
ATGTGTGA | -0.173
ATCTTTCC | 0.0916
GATACGTA | -0.127
AAGTAATC | 0.02
CCATGCCA | -0.0742
AGTGAAAG | -0.155
CAAGGTCA | -0.234
ATTCTCGC | -0.163
CAGGATAG | -0.156
AGGTGCCC | 0.0203

Sequence | PBM E-score
ATGAACAT | -0.101
CAAACTAG | -0.237
ATCTTGGC | -0.056
GAACAGTC | -0.0473
AGAAAGAG | -0.0989
CCCGTTTC | 0.167
CGCCCAAG | -0.00663
TCGAATAA | -0.0837
CCAGACAC | -0.222
CTCGGTCC | 0.156
CGGTTACA | 0.136
CATTACCC | 0.0896
CGTGATAG | -0.00468
CATCGCCC | -0.0556
CTAAACTA | -0.0546
ACAGGCTA | -0.248
TGATTAAA | -0.0593
ACCGAGAT | 0.184
ATTTTAAG | -0.118
AAGGGCGT | -0.102
AGGTAACG | -0.0647
CATTTTCG | 0.173
CACTCTCG | 0.0147
GGATAGAA | 0.081
CCTGCGAG | -0.0873

Sequence | PBM E-score
GCTAGACA | -0.159
GCCCTGCA | -0.0979
CGGCTGTA | 0.0129
CTCCTGAA | 0.238
AACCGAAG | -0.018
AGACGTAA | -0.152
AAGATACC | 0.0802
AAACTGAA | -0.00825
ACGACCGG | 0.301
AAGGGTTC | -0.0754
ACTTATTG | -0.136
ATTATGTG | 0.00779
ATGTCGTC | -0.0816
ACTTCGCC | 0.132
CGAGTTCA | -0.156
AAGGATAC | -0.0644
GGGCCTAA | -0.0784
CCTTTACA | -0.159
CCACGATA | -0.0921
CTCTAATA | -0.161
ACCTCGTG | -0.187
AACAGCCA | -0.147
ATTGGAAC | -0.0837
AATGACCT | -0.188
CCATGGAA | -0.201

Sequence | PBM E-score
GTGTGGAA | 0.0229
CTCTGTTA | -0.109
CTACATCA | -0.0771
TAGTATCA | 0.0781
AGGTGATG | -0.201
GAAAGGAA | 0.0898
GCACTGTA | -0.111
CTGACCAG | -0.286
ATAGACGG | 0.195
AGCGAGAG | 0.0233
AGTAGAGG | -0.395
TAACTGTA | -0.257
AGTTACGC | -0.127
GCCACGAC | 0.114
ACCTAATC | -0.0418
AAAGATAT | 0.00155
GAATGCCC | 0.0461
ATGTGGAG | 0.0389
CACGCCCG | 0.179
CCAGATTC | 0.0544
TCGCAGCA | -0.222
GAAACATC | -0.159
ATTGCGCG | 0.303
GGAAGCAA | 0.0252
GACACGGC | 0.174

Sequence | PBM E-score
ATCATTTA | -0.0754
CATAAGGC | 0.0151
AATACAGT | -0.118
CTCACGTA | -0.167
AAGTTTAA | -0.188
AAAGGGTT | -0.111
CGAACGTC | -0.0941
ACATACAA | -0.0587
GACCTGCA | -0.294
AAACCCTG | -0.095
CACTCGGG | 0.178
CCCCAGCG | -0.156
TACCCCAA | 0.00366
AGGTGCTG | -0.0925
AAAATTAG | 0.181
AACGAGAC | 0.0299
CATACAAA | 0.0558
CATCCGTC | 0.116
AGATTGCC | 0.0821
CGACAATA | 0.104
TCGCATAA | -0.041
GTGATACA | -0.151
ATGCCTGA | -0.0953
ATTAGCCC | 0.113
CTCCCAAG | -0.115

Sequence | PBM E-score
GTCCTTCA | -0.0346
AAGGACTT | -0.0763
AGCCTCAT | -0.0515
ATCTCATC | -0.0791
CGAACCCA | -0.0331
AAACTCTC | 0.104
CATGGTTA | -0.134
CTGTACGA | -0.176
AGTGTGAG | -0.25
CAAATCCA | -0.0454
CGCCACCG | 0.131
AAGGGTCT | -0.155
CTTGGATA | 0.0652
ACCAGTAG | -0.147
ATTGGCGA | -0.288
GTTTAGGA | -0.122
AGAGCGGA | 0.254
AATCACCT | -0.0602
AGCAGAGC | -0.226
